Source: PubChem BioAssay AID504332 (National Center for Advancing Translational Sciences (NCATS), 2011)
Hit rate of the full screen: of about 350,000 compounds, about 31,000 (8.9%) were called active. This list was built around the results that the source calls inconclusive (neither active nor inactive); the mix of calls is not that of the screen. Calls come from the whole dose curve; as a rule, active = well fitted inhibition curve with a large enough effect; inconclusive = small, poorly fitted or top-dose-only effect; inactive = no such curve, though single readings can be large or run the other way. Potencies of inconclusive entries are doubtful fits and often do not repeat.

These compounds were tested against Histone-lysine N-methyltransferase EHMT2 (Homo sapiens) (UniProt Q96KQ7) (assay: qHTS Assay for Inhibitors of Histone Lysine Methyltransferase G9a). Details: G9a H3K9 monomethylation, AlphaScreen, 2 h; activity, negative = inhibition: at 59 µM (top of the series) unless noted.
Sequence of UniProt Q96KQ7 (Q96KQ7 whole entry, looked up): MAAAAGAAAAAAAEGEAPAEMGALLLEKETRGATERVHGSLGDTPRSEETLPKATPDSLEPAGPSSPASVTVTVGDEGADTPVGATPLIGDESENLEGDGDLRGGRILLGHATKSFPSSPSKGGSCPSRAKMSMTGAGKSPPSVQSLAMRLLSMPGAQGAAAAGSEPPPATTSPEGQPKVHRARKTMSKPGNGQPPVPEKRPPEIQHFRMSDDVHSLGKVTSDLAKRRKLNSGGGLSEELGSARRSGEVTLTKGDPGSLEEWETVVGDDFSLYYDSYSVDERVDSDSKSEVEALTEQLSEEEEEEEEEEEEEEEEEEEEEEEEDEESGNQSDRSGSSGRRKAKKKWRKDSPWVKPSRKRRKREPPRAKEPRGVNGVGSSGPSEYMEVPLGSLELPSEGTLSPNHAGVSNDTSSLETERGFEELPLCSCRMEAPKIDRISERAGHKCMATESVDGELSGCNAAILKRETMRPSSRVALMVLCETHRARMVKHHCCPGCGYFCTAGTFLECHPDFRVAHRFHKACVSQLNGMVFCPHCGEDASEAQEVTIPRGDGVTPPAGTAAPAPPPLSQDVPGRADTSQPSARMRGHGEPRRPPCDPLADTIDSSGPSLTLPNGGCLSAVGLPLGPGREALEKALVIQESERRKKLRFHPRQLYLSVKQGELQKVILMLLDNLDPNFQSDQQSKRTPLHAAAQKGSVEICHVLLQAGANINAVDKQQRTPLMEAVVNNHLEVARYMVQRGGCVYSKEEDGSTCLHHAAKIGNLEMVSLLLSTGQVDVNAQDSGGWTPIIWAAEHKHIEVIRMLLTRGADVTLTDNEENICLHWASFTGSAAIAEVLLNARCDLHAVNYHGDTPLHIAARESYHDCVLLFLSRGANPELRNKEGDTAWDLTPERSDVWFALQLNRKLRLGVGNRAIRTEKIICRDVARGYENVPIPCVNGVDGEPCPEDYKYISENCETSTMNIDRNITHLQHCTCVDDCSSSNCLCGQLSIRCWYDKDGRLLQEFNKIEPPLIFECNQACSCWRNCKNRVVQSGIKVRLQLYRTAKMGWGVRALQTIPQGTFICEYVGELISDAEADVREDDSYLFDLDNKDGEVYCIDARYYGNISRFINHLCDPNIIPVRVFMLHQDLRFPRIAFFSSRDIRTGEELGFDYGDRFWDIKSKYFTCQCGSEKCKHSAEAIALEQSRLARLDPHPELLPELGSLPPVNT
Method in brief: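 Quantitative HTS format: methyltransferase activity on a biotin-tagged H3K9 peptide is measured by AlphaScreen, using a rabbit anti-monomethyl-H3K9 antibody with streptavidin donor and anti-IgG acceptor beads. Final levels are 20 nM enzyme, 500 nM peptide, 20 uM SAM; 2 h RT.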
% is set by controls: 0 for no effect and ±100 for the full control effect; potency is the fitted concentration of half-maximal effect; tags give direction and shape of the fitted curve.
Note: nearly all actives have a fitted effect of over 75% in size.

Row | SMILES | Potency | activity, negative = inhibition
1 | CN1CCN(c2nc(-c3cccc([N+](=O)[O-])c3)nc3ccccc23)CC1 | inconclusive: 56.2 µM [inhibitor, single point] | 
2 | CC1Cc2cc(C(=O)O)ccc2O1 (stereo not given) |  | inactive: 6.42%
3 | CCN(CC)CCN1CNC(=S)N(c2ccccc2OC)C1 | inconclusive: 79.4 µM [inhibitor, partial curve, poor fit] | 
4 | CN(/C=C/C(=C/C=[N+](C)c1ccccc1)OCCCS(=O)(=O)[O-])c1ccccc1 | inconclusive: 79.4 µM [inhibitor, single point] | 
5 | Cc1ccc(Nc2sc(C(=O)c3ccccc3)c(N)c2C(=O)Nc2ccc(Cl)cc2)cc1 | active: 11.2 µM | 
6 | O=C(CCc1ccc(S(=O)(=O)N2CCOCC2)cc1)NCCCN1CCCC1=O | inconclusive: 89.1 µM [inhibitor, single point] | 
7 | COc1ccc(NC(=O)COc2ccc(C(=O)c3ccc(F)cc3)cc2)cc1S(N)(=O)=O | inconclusive: 10 µM [inhibitor, partial curve, poor fit] | 
8 | N#Cc1ccc(CN2CCN(C(=O)c3ccc(S(=O)(=O)NCc4ccco4)cc3)CC2)cc1 | inconclusive: 0.447 µM [inhibitor, partial curve, poor fit] | 
9 | COc1cc2c(cc1OC)n(CC(=O)c1cccc(Cl)c1)c(=O)n1nc(CCn3nc(C)cc3C)nc21 |  | inactive: 10.5%
10 | Cc1cccc(N2CCN(C(=O)c3ccc(CS(=O)(=O)c4ccccc4C)o3)CC2C)c1 (stereo not given) | inconclusive: 28.2 µM [inhibitor, partial curve, poor fit] | 
11 | Cc1ccc(S(=O)(=O)N2CCC(C(=O)N/N=C/c3ccccc3[N+](=O)[O-])CC2)cc1 | inconclusive: 31.6 µM [inhibitor, single point] | 
12 | CCOC(=O)CSc1nnc(C)n1N | inconclusive: 25.1 µM [inhibitor, single point] | 
13 | CCOC(=O)c1c(C)n(C)c2ccc(OC)c(NC(=O)c3cccs3)c12 |  | inactive: 19.7%
14 | Cc1cc(O)ccc1N/C=C1\CCCC1=O | inconclusive: 0.631 µM [inhibitor, full curve, poor fit] | 
15 | Cc1cccc(NC(=O)c2ccccn2)c1C | inconclusive: 39.8 µM [inhibitor, single point] | 
16 | COc1cccc(C(=O)N2c3ccc(C)cc3C(C)(c3ccccc3)CC2(C)C)c1 (stereo not given) |  | inactive: 4.56%
17 | Cc1[nH]n(-c2ncc(-c3ccc(Cl)cc3)s2)c(=O)c1C(c1ccc(Cl)cc1)C(C#N)C#N (stereo not given) | inconclusive: 20 µM [inhibitor, single point] | 
18 | Cc1cc(C)nc(NC(=S)Nc2ccc(Br)cc2Cl)c1 | inconclusive: 44.7 µM [inhibitor, partial curve, poor fit] | 
19 | CC1=C(C(N)=O)C(c2ccccc2[N+](=O)[O-])n2ncnc2N1 (stereo not given) | active: 28.2 µM | 
20 | CCn1c(C)[n+](CCOCC[n+]2c(C)n(CC)c3cc(Cl)c(Cl)cc32)c2cc(Cl)c(Cl)cc21 | inconclusive: 1.78 µM [inhibitor, full curve, poor fit] | 
21 | O=C(COc1ccccc1)N1CCc2ccccc21 | inconclusive: 22.4 µM [inhibitor, partial curve, poor fit] | 
22 | O=C(CCS(=O)(=O)c1nc(-c2cccs2)cc(C(F)(F)F)n1)Nc1cc(Br)ccc1O | inconclusive: 7.08 µM [inhibitor, partial curve] | 

Row | SMILES | Potency | activity, negative = inhibition
23 | CCN(CC)S(=O)(=O)c1cccc(NC(=O)CSc2nc3ccccc3[nH]2)c1 | inconclusive: 89.1 µM [inhibitor, partial curve, poor fit] | 
24 | COc1ccc(C(=O)c2c(C)c3ccccc3n2CC(O)CNC(C)C)cc1 (stereo not given) | active: 44.7 µM | 
25 | COc1cccc(-c2nc(CS(=O)(=O)CC(=O)N3CCCCC3)c(C)o2)c1 |  | inactive: 2.22% [at 102 µM]
26 | COc1ccc(OC)c(N(CC(=O)O)S(=O)(=O)c2ccc(OC)c(OC)c2)c1 | inconclusive: 1 µM [inhibitor, full curve, poor fit] | 
27 | CCc1ccc(-c2cn3c(n2)sc2cc(C(=O)NCCC4=CCCCC4)ccc23)cc1 | inconclusive: 28.2 µM [inhibitor, partial curve, poor fit] | 
28 | Cc1c(C)c(C)c(CO/N=C/c2cccs2)c(C)c1C |  | inactive: -2.31% [at 102 µM]
29 | CC(C)[C@H](NC(=O)C1CC(=O)N(c2ccc(F)cc2)C1)C(=O)N1CCCCC1 (stereo not given in full) |  | inactive: 46.6% [at 102 µM]
30 | Cc1ccc(C(C(=O)NCc2ccccc2)N(Cc2ccco2)C(=O)c2snc(C(N)=O)c2N)o1 (stereo not given) | inconclusive: 89.1 µM [inhibitor, single point] | 
31 | CN(C)c1nc(N2CCN(c3ccc(F)cc3)CC2)c(C#N)c(=O)o1 |  | inconclusive: -62.9% [inhibitor] [at 12.7 µM]
32 | COC(=O)CSc1nnc(-c2ccco2)n1Cc1ccco1 | inconclusive: 25.1 µM [inhibitor, single point] | 
33 | COc1ccc2c(c1OC)C(=O)OC2Nc1nc(-c2ccccc2)cs1 (stereo not given) |  | inconclusive: -82.3% [inhibitor]
34 | CC(=C1C(=O)c2ccccc2C1=O)N1CCC(C(N)=O)(N2CCCCC2)CC1 | inconclusive: 15.8 µM [inhibitor, single point] | 
35 | N#Cc1nc(COc2cccc(Cl)c2)oc1NCCc1ccccc1 | inconclusive: 28.2 µM [inhibitor, single point] | 
36 | Cc1cc(C)c(S(=O)(=O)Nc2ccc(-c3cn4ccccc4n3)cc2)c(C)c1 | inconclusive: 50.1 µM [inhibitor, partial curve, poor fit] | 
37 | O=C(CP(=O)(c1ccccc1)c1ccccc1)N/N=C/c1cc(Br)cc(Br)c1O |  | inactive: 29%
38 | CCCCn1c(=O)[nH]c(=O)c2c1nc(-c1ccc([N+](=O)[O-])cc1)n2CC | inconclusive: 89.1 µM [inhibitor, partial curve, poor fit] | 
39 | Cc1ccc(N2C(=O)N(CC(=O)Nc3cccc(Cl)c3)C(=O)C2C)cc1 (stereo not given) | inconclusive: 89.1 µM [inhibitor, single point] | 
40 | Cc1c2c(n3c(nc4ccccc43)c1C#N)N(c1ccccc1)CC2 | inconclusive: 20 µM [inhibitor, single point] | 
41 | Cc1ccc(NC(=O)Cn2c(=O)n(Cc3nc(C)no3)c(=O)c3cc4c(cc32)OCO4)c(C)c1 |  | inactive: 5.34%
42 | Nc1nc2sc3c(c2cc1C(=O)NCC(=O)O)CCCC3 | inconclusive: 56.2 µM [inhibitor, partial curve, poor fit] | 
43 | CCc1nnc(NC(=O)c2cnccn2)s1 | inconclusive: 0.501 µM [inhibitor, partial curve, poor fit] | 
44 | O=C(COC(=O)c1ccccn1)Nc1c(Cl)cccc1Cl | inconclusive: 89.1 µM [inhibitor, single point] | 

Row | SMILES | Potency | activity, negative = inhibition
45 | CCOC(=O)C(NC(C)=O)(N1CCc2ccccc2C1)C(F)(F)F (stereo not given) | inconclusive: 89.1 µM [inhibitor, single point] | 
46 | NNC(=O)c1ccc(N2CCCCCC2)c([N+](=O)[O-])c1 | inconclusive: 44.7 µM [inhibitor, partial curve, poor fit] | 
47 | CCOc1ccc(OCCC(=O)N(CC)CC(=O)NCc2ccc(Cl)cc2)cc1 | inconclusive: 79.4 µM [inhibitor, single point] | 
48 | Cc1ccc(C(=O)c2c(N)c(C(=O)Nc3ccccc3Cl)c3ccccn23)cc1 |  | inactive: 3.26%
49 | COC(=O)CNC(=O)C1CCN(S(=O)(=O)c2cccc3nsnc23)CC1 |  | inactive: -6.11%
50 | O=C(CN1C(=O)C2CCCN2c2ncc(Cl)cc21)NCc1ccc2c(c1)OCO2 (stereo not given) |  | inactive: 24.3%
51 | Cc1cc(C(=O)Nc2ccc(N3CCCC3)c(Cl)c2)ccc1[N+](=O)[O-] |  | inactive: -7.32%
52 | Oc1ccc(/C=N/n2c(-c3ccco3)csc2=Nc2cccnc2)c(O)c1 | inconclusive: 89.1 µM [inhibitor, single point] | 
53 | CCCCCCNC(=O)N[C@@H](C(=O)NCCC[C@H]1CN2C(=NC[C@@H]2Cc2ccccc2)N1CCc1cccc(OC)c1)C(C)C | inconclusive: 3.16 µM [inhibitor, single point] | 
54 | COc1cc(CNc2ccc(N3CCCCC3)cc2)ccc1OCC(=O)NC(C)(C)C | active: 14.1 µM | 
55 | c1ccc2c(CN3CCOCC3)c3ccccc3c(CN3CCOCC3)c2c1 | inconclusive: 70.8 µM [inhibitor, partial curve, poor fit] | 
56 | CC1(C)N([O-])C2=C(CCCC2)[N+]1=O | inconclusive: 56.2 µM [inhibitor, partial curve, poor fit] | 
57 | Cc1noc(C)c1C(=O)N1CCC2(CCCN(C(=O)Nc3cccc(F)c3)C2)CC1 |  | inactive: 0.739% [at 12.7 µM]
58 | COc1cc2c(Nc3ccc(Br)cc3F)ncnc2cc1OCC1CCN(C)CC1 | inconclusive: 3.16 µM [inhibitor, single point] | 
59 | COc1ccc(C(=O)O)cc1Nc1cc(C)nc2ncnn12 | inconclusive: 89.1 µM [inhibitor, single point] | 
60 | O=C1/C(=C\c2ccc(-c3ccccc3Cl)o2)SC(=S)N1CC1CCCO1 (stereo not given) | inconclusive: 17.8 µM [inhibitor, single point] | 
61 | Cc1ccc(NC(=O)CNCc2cccs2)cc1Br | active: 17.8 µM | 
62 | Cc1ccc([N+](=O)[O-])cc1S(=O)(=O)N1CCC(C)CC1 | active: 56.2 µM | 
63 | CCCNC(=O)c1ccc2c(=O)n3c(-c4ccc(C)cc4)csc3nc2c1 | inconclusive: 0.562 µM [inhibitor, full curve, poor fit] | 
64 | COc1ccccc1NC(=O)CSc1nnc(NC(=O)Nc2ccc(C)cc2)s1 | inconclusive: 20 µM [inhibitor, single point] | 
65 | CN(C)CCNC(=O)c1ccc2c(c1)NC(=O)C(CS(=O)(=O)Cc1cccc(Br)c1)N2 (stereo not given) | inconclusive: 28.2 µM [inhibitor, single point] | 
